In publication PMC4336329 (PLoS ONE, 2015):
Screen size: about 310,000 compounds; about 2,200 (0.71%) showed an effect of 50% or more. The effect is printed as a negative number. This is one part of the list.

These molecules were tested against human ether-à-go-go-related gene (hERG) potassium channel (human, UniProt Q12809) (assay: primary screen, population patch clamp on CHO cells stably expressing hERG).
human ether-à-go-go-related gene (hERG) potassium channel, sequence (Q12809 whole entry, looked up): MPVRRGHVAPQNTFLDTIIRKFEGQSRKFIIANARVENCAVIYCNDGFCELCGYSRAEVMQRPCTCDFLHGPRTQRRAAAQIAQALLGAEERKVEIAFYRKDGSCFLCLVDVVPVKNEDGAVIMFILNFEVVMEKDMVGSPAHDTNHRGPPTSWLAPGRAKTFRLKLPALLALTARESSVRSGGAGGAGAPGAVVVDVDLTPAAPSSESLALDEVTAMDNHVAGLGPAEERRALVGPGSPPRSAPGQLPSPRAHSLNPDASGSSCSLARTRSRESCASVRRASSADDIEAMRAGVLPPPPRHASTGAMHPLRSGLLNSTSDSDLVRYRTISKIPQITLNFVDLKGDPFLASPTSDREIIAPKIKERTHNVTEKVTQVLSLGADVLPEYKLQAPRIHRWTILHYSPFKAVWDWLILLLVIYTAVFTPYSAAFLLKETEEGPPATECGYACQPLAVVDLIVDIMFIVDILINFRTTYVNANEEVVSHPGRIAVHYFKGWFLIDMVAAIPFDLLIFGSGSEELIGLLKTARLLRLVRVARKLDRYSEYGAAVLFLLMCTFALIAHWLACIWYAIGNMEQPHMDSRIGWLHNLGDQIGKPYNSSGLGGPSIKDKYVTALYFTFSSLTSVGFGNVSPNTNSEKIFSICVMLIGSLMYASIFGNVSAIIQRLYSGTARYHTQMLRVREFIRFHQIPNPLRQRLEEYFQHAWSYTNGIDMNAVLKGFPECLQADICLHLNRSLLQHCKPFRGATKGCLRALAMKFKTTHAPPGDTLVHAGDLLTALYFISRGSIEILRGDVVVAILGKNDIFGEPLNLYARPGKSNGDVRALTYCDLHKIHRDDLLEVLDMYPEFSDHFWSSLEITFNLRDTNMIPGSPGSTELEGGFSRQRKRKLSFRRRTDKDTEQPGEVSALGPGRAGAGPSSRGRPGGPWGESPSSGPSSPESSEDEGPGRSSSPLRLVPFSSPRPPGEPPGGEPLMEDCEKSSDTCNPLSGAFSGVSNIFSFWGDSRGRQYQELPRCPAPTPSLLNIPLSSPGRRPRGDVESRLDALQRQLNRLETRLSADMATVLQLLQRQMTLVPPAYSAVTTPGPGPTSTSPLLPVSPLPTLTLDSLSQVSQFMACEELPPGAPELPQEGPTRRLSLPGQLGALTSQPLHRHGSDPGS
CCN(CC)C(=O)C(=O)N/N=C/c1ccc(F)cc1 was tested, and the “hERG current change (%, negative = inhibition) at 1uM” value was 10.7%. With COc1ccccc1NC(=O)C(=O)NCC1COc2ccccc2O1 (centres unmarked) the “hERG current change (%, negative = inhibition) at 1uM” value was 4.85%. For CC(=O)c1c(N2CCN(c3ccc(F)cc3)CC2)nc(=S)n(-c2ccccc2)c1C, the “hERG current change (%, negative = inhibition) at 1uM” value was -69.3%. Cc1cc(NC(=O)c2ccc(F)cc2)ccc1NC(=O)c1ccco1 was tested, and the “hERG current change (%, negative = inhibition) at 1uM” value was 11.5%. O=C(NCC(c1cccnc1)N1CCN(c2ccccc2F)CC1)c1ccco1 (centres unmarked) was tested, and the “hERG current change (%, negative = inhibition) at 1uM” value was 11.5%. In the case of Cc1ccc(-c2nc(CS(=O)CC(=O)NCCN3CCCC3)c(C)o2)cc1 (centres unmarked), the “hERG current change (%, negative = inhibition) at 1uM” value is reported as 1.33%. With CCOc1ccccc1N1CCN(C(=O)NCc2ccc(Cl)cc2)CC1 the “hERG current change (%, negative = inhibition) at 1uM” value was 7.28%. With c1cncc(-c2nn3c(Cn4cnc5ccccc54)nnc3s2)c1 the “hERG current change (%, negative = inhibition) at 1uM” value was 4.29%. For COc1ccccc1-c1coc2cc(OC(=O)N3CCOCC3)ccc2c1=O, the “hERG current change (%, negative = inhibition) at 1uM” value was 11.2%. CCOC(=O)C1=C(c2ccccc2)OC(N)=C(C#N)C1c1ccncc1 (centres unmarked) was tested, and the “hERG current change (%, negative = inhibition) at 1uM” value was 10.5%. With CC(C)CCN1CCN(Cc2cccc3nonc23)CC1CCO (centres unmarked) the “hERG current change (%, negative = inhibition) at 1uM” value was 8.74%. For COc1ccc(Cl)c2sc(N(Cc3cccnc3)C(C)=O)nc12, the “hERG current change (%, negative = inhibition) at 1uM” value was 11.5%. With O=C(CN1CCN(CC(=O)Nc2ccc(F)cc2)CC1)NCC1(N2CCOCC2)CCCCC1 the “hERG current change (%, negative = inhibition) at 1uM” value was -20.7%. With CCOc1ccc(NC(=O)c2ccc(CSc3nnc(C)s3)cc2)cc1 the “hERG current change (%, negative = inhibition) at 1uM” value was 8.09%. In the case of CCN(C(=O)CN1CCN(S(=O)(=O)c2ccccc2C(F)(F)F)CC1)c1c(N)n(Cc2ccccc2)c(=O)[nH]c1=O, the “hERG current change (%, negative = inhibition) at 1uM” value is reported as 9.18%. For Cc1nn(Cc2cccc(C(=O)N3N=C(C(F)F)CC3(O)C(F)F)c2)c(C)c1[N+](=O)[O-] (centres unmarked), the “hERG current change (%, negative = inhibition) at 1uM” value was -11.2%. For CC(=O)Nc1ccccc1Nc1cc(C#N)c(C#N)cc1[N+](=O)[O-], the “hERG current change (%, negative = inhibition) at 1uM” value was 4.12%. For COc1cc2c(cc1OC)C(c1ccc(Cl)cc1)=NCC2, the “hERG current change (%, negative = inhibition) at 1uM” value was -2.34%. With CC(NC(=O)CSc1nc2ccccc2n1C)c1ccccc1 (centres unmarked) the “hERG current change (%, negative = inhibition) at 1uM” value was 6.28%. For OC(CN1CCCCC1)Cn1c2ccc(Cl)cc2c2cc(Cl)ccc21 (centres unmarked), the “hERG current change (%, negative = inhibition) at 1uM” value was 8.82%. With CC(=O)c1cn(C2OC(CO)C3OC(C)(C)OC32)c(=O)n(C)c1=O (centres unmarked) the “hERG current change (%, negative = inhibition) at 1uM” value was 13.2%. N#CCCn1cc(C(=O)Nc2ccccc2Br)c(-c2ccc([N+](=O)[O-])cc2)n1 was tested, and the “hERG current change (%, negative = inhibition) at 1uM” value was -5.15%. COc1ccccc1NC(=O)CN1CCCCCC1 was tested, and the “hERG current change (%, negative = inhibition) at 1uM” value was 14.7%. In the case of CCNC(=S)N(Cc1cccs1)Cc1cc2cc(OCC)ccc2[nH]c1=O, the “hERG current change (%, negative = inhibition) at 1uM” value is reported as 12.9%. For Cc1nnsc1C(=O)NC(C)C12CC3CC(CC(C3)C1)C2 (centres unmarked), the “hERG current change (%, negative = inhibition) at 1uM” value was 10.4%. For O=C(NCC(=O)N1CCOCC1)c1ccc(Br)cc1, the “hERG current change (%, negative = inhibition) at 1uM” value was 5.61%. COc1ccccc1Oc1ccc(S(=O)(=O)NCc2ccccn2)cc1 was tested, and the “hERG current change (%, negative = inhibition) at 1uM” value was 5.13%. Cc1ccc(S(=O)(=O)NCCC(=O)NC2CC2)cc1 was tested, and the “hERG current change (%, negative = inhibition) at 1uM” value was 16.6%. In the case of CC(C)CN(C)C(=O)CCc1nnc(Cc2cccc(C(F)(F)F)c2)o1, the “hERG current change (%, negative = inhibition) at 1uM” value is reported as 15.2%. In the case of C/C(=N\NC(=O)c1nn(C)cc1Br)c1cccc(NC(=O)C(C)(C)C)c1, the “hERG current change (%, negative = inhibition) at 1uM” value is reported as 8.22%. CCN(CC)S(=O)(=O)c1cc(C(=O)Nc2ccccc2C(=O)O)ccc1OC was tested, and the “hERG current change (%, negative = inhibition) at 1uM” value was 18.6%. For O=C(O)c1ccc(CNS(=O)(=O)c2ccc(Oc3ccccc3Cl)cc2)cc1, the “hERG current change (%, negative = inhibition) at 1uM” value was 17.3%. With COc1ccc(-c2cc(C(=O)OCC(=O)Nc3ccc4c(c3)OCO4)c3ccccc3n2)cc1 the “hERG current change (%, negative = inhibition) at 1uM” value was 4.36%. With FC(F)(F)c1cccc(Cn2nnnc2-c2ccc(Cl)cc2)c1 the “hERG current change (%, negative = inhibition) at 1uM” value was 22.3%. With Nc1nccc(-c2cccs2)n1 the “hERG current change (%, negative = inhibition) at 1uM” value was 9.87%. For N/C(=N\OC(=O)c1cccc2ccccc12)c1ccncc1, the “hERG current change (%, negative = inhibition) at 1uM” value was 5.77%. In the case of Cc1nn(Cc2c(F)c(F)c(F)c(F)c2F)c(C)c1NC(=O)c1nn(C)cc1[N+](=O)[O-], the “hERG current change (%, negative = inhibition) at 1uM” value is reported as -7.91%. In the case of CCOc1ccccc1N1CCN(C(=O)c2cc3c(s2)CCC3)CC1, the “hERG current change (%, negative = inhibition) at 1uM” value is reported as 9.09%. With COc1ccc(OC(=O)c2cccnc2)cc1 the “hERG current change (%, negative = inhibition) at 1uM” value was 8.02%. With CCOC(=O)COc1nc(-c2ccccc2)cc(-c2ccco2)c1C#N the “hERG current change (%, negative = inhibition) at 1uM” value was 14.3%. CCC(=O)N1CCc2cc(Br)cc(S(=O)(=O)N3CCCC(C(=O)NC(C)(C)C)C3)c21 (centres unmarked) was tested, and the “hERG current change (%, negative = inhibition) at 1uM” value was 16.2%. For CCN(c1ccccc1)S(=O)(=O)c1ccc(NC(=O)c2nc(S(C)(=O)=O)ncc2Cl)cc1, the “hERG current change (%, negative = inhibition) at 1uM” value was 4.74%. For CSc1nc(-c2ccccc2)nn1S(=O)(=O)c1ccccc1, the “hERG current change (%, negative = inhibition) at 1uM” value was 3.41%. With Cc1ccc(-n2ccnc2SCC(=O)O)cc1C the “hERG current change (%, negative = inhibition) at 1uM” value was -2.3%. COC(=O)C1=C(c2cccc(OCc3ccccc3)c2)C[C@@H]2CC[C@H]1N2C(=O)NC1CCN(Cc2ccccc2)CC1 was tested, and the “hERG current change (%, negative = inhibition) at 1uM” value was 14.7%. CC(=O)N1CCN(c2ccc([N+](=O)[O-])c(-n3nc(C)cc3C)c2)CC1 was tested, and the “hERG current change (%, negative = inhibition) at 1uM” value was -9.97%. For Cc1nn(C(C)C(=O)NCC2CCCO2)c(=O)c2c1sc1ccccc12 (centres unmarked), the “hERG current change (%, negative = inhibition) at 1uM” value was 0.0864%. For COc1cc(S(=O)(=O)N2CCN(Cc3ccccc3)CC2)ccc1Br, the “hERG current change (%, negative = inhibition) at 1uM” value was 4.58%. For C/C(=N\NC(=O)Cc1ccc(Cl)c(Cl)c1)c1cccnc1, the “hERG current change (%, negative = inhibition) at 1uM” value was -8.31%. In the case of Cc1ccc(OCC(=O)Nc2ccc(N3CCN(S(C)(=O)=O)CC3)cc2)cc1, the “hERG current change (%, negative = inhibition) at 1uM” value is reported as -11.8%. For COc1ccc2cc3cc(C(=O)NC4CC4)sc3nc2c1, the “hERG current change (%, negative = inhibition) at 1uM” value was 11.8%. For Clc1ccc2c(c1)-c1[nH]ncc1CS2, the “hERG current change (%, negative = inhibition) at 1uM” value was -5.2%. For COC(=O)c1c(NC(=O)Cc2ccc(OC)c(S(=O)(=O)N3CCOCC3)c2)sc(C)c1C, the “hERG current change (%, negative = inhibition) at 1uM” value was 10.9%. With Cc1noc(C)c1C(=O)OCC(=O)Nc1cc(Cl)ccc1Oc1ccccc1 the “hERG current change (%, negative = inhibition) at 1uM” value was -3.84%. In the case of Cc1cccc(NC(=O)CCn2c(=O)oc3ccccc32)c1, the “hERG current change (%, negative = inhibition) at 1uM” value is reported as 14.2%. For CC1(C)CC(=O)C2=C(C1)OC(N)=C([N+](=O)[O-])C2c1ccc(C#N)s1 (centres unmarked), the “hERG current change (%, negative = inhibition) at 1uM” value was 3.2%.
